Results from the supplement of paper PMC8728848.
This is one part of the list.

Assays:
Test in all cases: glycan array binding signal (z-score within array); higher = stronger binding
Conditions in all cases: glycan notation: IUPAC condensed, linker removed
[1] = target: Neu5Ac(a2-6)Gal(b1-4)GlcNAc(b1-2)Man(a1-6)[Man(a1-3)]Man(b1-4)GlcNAc(b1-4)GlcNAc
Method in brief: (§1)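 From the Consortium for Functional Glycomics database, 3228 arrays were curated, keeping only those whose protein sequence was available. Binding is given as a within-array Z-score averaged across arrays sharing a protein sequence and across linkers. Negative Z-scores can be read as non-binding.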

[2] = target: Neu5Ac(a2-6)Gal(b1-4)GlcNAc(b1-2)[Neu5Ac(a2-6)Gal(b1-4)GlcNAc(b1-4)]Man(a1-3)[GlcNAc(b1-4)][Neu5Ac(a2-6)Gal(b1-4)GlcNAc(b1-2)[Neu5Ac(a2-6)Gal(b1-4)GlcNAc(b1-6)]Man(a1-6)]Man(b1-4)GlcNAc(b1-4)GlcNAc
Method in brief: as §1

[3] = target: Neu5Ac(a2-6)Gal(b1-4)GlcNAc(b1-2)[Neu5Ac(a2-6)Gal(b1-4)GlcNAc(b1-4)]Man(a1-3)[GlcNAc(b1-4)][Neu5Ac(a2-6)Gal(b1-4)GlcNAc(b1-4)Man(a1-6)]Man(b1-4)GlcNAc(b1-4)GlcNAc
Method in brief: as §1

[4] = target: Neu5Ac(a2-6)Gal(b1-4)GlcNAc(b1-2)[Neu5Ac(a2-6)Gal(b1-4)GlcNAc(b1-6)]Man(a1-6)[Neu5Ac(a2-6)Gal(b1-4)GlcNAc(b1-2)Man(a1-3)][GlcNAc(b1-4)]Man(b1-4)GlcNAc(b1-4)GlcNAc
Method in brief: as §1

[5] = target: Neu5Ac(a2-6)Gal(b1-4)GlcNAc(b1-3)Gal(b1-3)GlcNAc
Method in brief: as §1

[6] = target: Neu5Ac(a2-6)Gal(b1-4)GlcNAc(b1-3)Gal(b1-4)GlcNAc
Method in brief: as §1

[7] = target: Neu5Ac(a2-6)Gal(b1-4)GlcNAc(b1-3)Gal(b1-4)GlcNAc(b1-2)Man(a1-3)[Neu5Ac(a2-6)Gal(b1-4)GlcNAc(b1-3)Gal(b1-4)GlcNAc(b1-2)Man(a1-6)]GalNAc
Method in brief: as §1

[8] = target: Neu5Ac(a2-6)Gal(b1-4)GlcNAc(b1-3)Gal(b1-4)GlcNAc(b1-3)Gal(b1-4)GlcNAc
Method in brief: as §1

[9] = target: Neu5Ac(a2-6)Gal(b1-4)GlcNAc(b1-3)Gal(b1-4)GlcNAc(b1-3)Gal(b1-4)GlcNAc(b1-2)Man(a1-3)[Neu5Ac(a2-6)Gal(b1-4)GlcNAc(b1-3)Gal(b1-4)GlcNAc(b1-3)Gal(b1-4)GlcNAc(b1-2)Man(a1-6)]GalNAc
Method in brief: as §1

[10] = target: Neu5Ac(a2-6)Gal(b1-4)GlcNAc(b1-3)Gal(b1-4)GlcNAc(b1-3)GalNAc
Method in brief: as §1

[11] = target: Neu5Ac(a2-6)Gal(b1-4)GlcNAc(b1-3)Gal(b1-4)GlcNAc(b1-3)[Neu5Ac(a2-6)Gal(b1-4)GlcNAc(b1-3)Gal(b1-4)GlcNAc(b1-6)]GalNAc
Method in brief: as §1

[12] = target: Neu5Ac(a2-6)Gal(b1-4)GlcNAc(b1-3)Gal(b1-4)GlcNAc(b1-6)[Gal(b1-3)]GalNAc
Method in brief: as §1

[13] = target: Neu5Ac(a2-6)Gal(b1-4)GlcNAc(b1-3)Gal(b1-4)[Fuc(a1-3)]GlcNAc(b1-3)Gal(b1-4)[Fuc(a1-3)]GlcNAc
Method in brief: as §1

[14] = target: Neu5Ac(a2-6)Gal(b1-4)GlcNAc(b1-3)GalNAc
Method in brief: as §1

[15] = target: Neu5Ac(a2-6)Gal(b1-4)GlcNAc(b1-3)[Neu5Ac(a2-6)Gal(b1-4)GlcNAc(b1-6)]GalNAc
Method in brief: as §1

[16] = target: Neu5Ac(a2-6)Gal(b1-4)GlcNAc(b1-6)GalNAc
Method in brief: as §1

[17] = target: Neu5Ac(a2-6)Gal(b1-4)GlcNAc(b1-6)[Gal(b1-3)GlcNAc(b1-3)]Gal(b1-4)Glc
Method in brief: as §1

[18] = target: Neu5Ac(a2-6)Gal(b1-4)GlcNAc(b1-6)[Gal(b1-3)]GalNAc
Method in brief: as §1

[19] = target: Neu5Ac(a2-6)Gal(b1-4)GlcNAc6S
Method in brief: as §1

[20] = target: Neu5Ac(a2-6)GalNAc
Method in brief: as §1

[21] = target: Neu5Ac(a2-6)GalNAc(b1-4)GlcNAc
Method in brief: as §1

[22] = target: Neu5Ac(a2-6)GalNAc(b1-4)GlcNAc6S
Method in brief: as §1

[23] = target: Neu5Ac(a2-6)GlcNAc(b1-4)GlcNAc
Method in brief: as §1

B1: Cp ZmpB (Clostridium perfringens), Q0TR08 (protein)
chain: MNKRKIAAIILATMITNLSATTIDVLAQELNTKNNSKVEVSHDDESHQARVSKFDLYNSDKLDAYNQEFQVSRSNIKSINNNGGKYNSSTIDKAIDGNLETHWETGKPNDANFTNEVVVTFNEITNIDRIVYSARRDSARGKGFAKEFEIYASLKDEGDDFNLVSSGEYTESTRDLVEIKFNPTDFKRLKFKFKKADQNWASAAEFMFYKEDKLNEKFNGLFTDSSMNKVSEEFNTLEKLNAFENELKDHPIYDLYKEGLNNARAILTETSENPTKATLGQITYNLNDDYNNQYRMPYKNIKAIKNNGRHYAAQNIEKAIDNDVNTYWETGTLNSSSFNNEVEVEFNDLVTLDRIVYGSRQSDLKGFAEEVYIYASRTSKGDTYKLVATGAHEATKGLVEAKFEPTEFKRVKFKFKKSKQNSATLNELMFYKPDEVYSSIPKLFTDGTMSELSEEFNSLEKINAFKEKAKNHPLYNDFNETIELAESLISNPRKEDVLELEMRGDSISEAKKRKVWNFQDWQITGLSARAGDKITVYVDVAEGDPTPTLLYKQSLTQHGGATSFQLKPGKNEITIPEINYESNGIPKDVIQGGDLFFTNYKSDSQKRAPKVRIEGASKYPVFILGKSDENEVMKELEAYVEKIKAEPKTTPNIFAVSSNKSLEFVQATYALDWYKKNNKTPKYTAEQWDQYIADAMGFWGFDNSKDVNSDFNFRIMPMVKNLSGGAFMNAGNGVIGIRPGNQDAILAANKGWGVAHELGHNFDTGGRTIVEVTNNMMPLFFESKYKTKTRITDQNIWENNTYPKVGLDDYSNNELYNKADSTHLAQLAPLWQLYLYDNTFYGKFERQFRERDFGNKNREDIYKSWVVAASDAMELDLTEFFARHGIRVDDKVKEDLAKYPKPDKKIYYLNDLAMNYKGDGFTENAKVSVSTSGSNGNIKLSFSVDDENKDNILGYEIRRDGKYVGFTSNDSFVDTKSNLDEDGVYVVTPYDRKLNTLNPIEVNALQPTLSVNPVITLALGEEFNEEEYIVAKDIKGNSLSESVKVKSSNVNTSKVGEYEVLYSLEDSKGNEYTKTSKVNVVSRKEYMSDLTPKQSSNGWGTVRKDKSISGGVIGLTRDGDFVDYNKGLGLHSNAEYVYDLEGKDYDYFESYVGVDKAMSSRPASSVIFKVLVDGEEKFNSGVMRSTTPQKYVKVDVKNAKELKLIVNDAGDGDSSDHASFGDAKLATLSSKPIIKGENLAYSMDEKVDLMKGITATDIEDGNITSKVQIKSSDFVEGKSGIFTVVYSVTDSDGLTSECSRTIAVTDKETQLSDLNWKSATIGSGSVRKDRAVSGNQIRLLNEDNSVETFAKGIGTHSYSEIVYNSEGYDIFDTWVGIDRHVADKKVSSVKFKVYVDGELKAETDVMRIDTPKKRLVVDVRNSKEIKLVVDVADNGNNWDHADWADAKFRNLAEYDASELNKAIEEAKKLDLNNYTEESSEALKNAISKGEEALLSKDKETINSALEELNKEMNSLVKVDLNAVINIPDKYLLKSIQNQLNKTGDITLGDMYSLTTLTLSGVEDLTGLENAKNLETLNMDYNEVKDLRPLSKLKKLNTLNAQEQFIAAGELKPSNGKVIGDSKVYNREGKNVAKTIRVVDKNGNTILEQDAKDEFTINTKDLSSGLYGVHVLFEDEGFSGVMFYLFNV
glycan array binding signal (z-score) [1]: -0.386 | glycan array binding signal (z-score) [2]: 0.198 | glycan array binding signal (z-score) [3]: 0.1 | glycan array binding signal (z-score) [4]: -0.171 | glycan array binding signal (z-score) [5]: -0.479 | glycan array binding signal (z-score) [6]: 1.03 | glycan array binding signal (z-score) [7]: -0.241 | glycan array binding signal (z-score) [8]: 0.06 | glycan array binding signal (z-score) [9]: -0.333 | glycan array binding signal (z-score) [10]: -0.303 | glycan array binding signal (z-score) [11]: 0.602 | glycan array binding signal (z-score) [12]: -0.162 | glycan array binding signal (z-score) [13]: 0.019 | glycan array binding signal (z-score) [14]: -0.399 | glycan array binding signal (z-score) [15]: 0.229 | glycan array binding signal (z-score) [16]: 0.452 | glycan array binding signal (z-score) [17]: -0.011 | glycan array binding signal (z-score) [18]: -0.377 | glycan array binding signal (z-score) [19]: 0.289 | glycan array binding signal (z-score) [20]: -0.196 | glycan array binding signal (z-score) [21]: -0.135 | glycan array binding signal (z-score) [22]: 0.627 | glycan array binding signal (z-score) [23]: -0.201
